# In PMC6919601, “Identification of Plasmodium dipeptidyl aminopeptidase allosteric inhibitors by high throughput screening” (PLoS ONE, 2019):
# Out of some 110,000 compounds screened, about 230 (0.21%) showed an effect of 50% or more. Some of the results follow.
# Molecular target: DPAP1 (Plasmodium falciparum, UniProt Q8IIJ9)
# Assay: primary screen, percent inhibition; read by cleavage of a fluorogenic dipeptide substrate; higher = more effect of the substance
# Design: species or system P. falciparum D10 trophozoite lysates; single well
# 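Further: 30 min substrate incubation versus DMSO and 10 µM JCP410 controls.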
# Chain of DPAP1 (Q8IIJ9 whole entry, looked up): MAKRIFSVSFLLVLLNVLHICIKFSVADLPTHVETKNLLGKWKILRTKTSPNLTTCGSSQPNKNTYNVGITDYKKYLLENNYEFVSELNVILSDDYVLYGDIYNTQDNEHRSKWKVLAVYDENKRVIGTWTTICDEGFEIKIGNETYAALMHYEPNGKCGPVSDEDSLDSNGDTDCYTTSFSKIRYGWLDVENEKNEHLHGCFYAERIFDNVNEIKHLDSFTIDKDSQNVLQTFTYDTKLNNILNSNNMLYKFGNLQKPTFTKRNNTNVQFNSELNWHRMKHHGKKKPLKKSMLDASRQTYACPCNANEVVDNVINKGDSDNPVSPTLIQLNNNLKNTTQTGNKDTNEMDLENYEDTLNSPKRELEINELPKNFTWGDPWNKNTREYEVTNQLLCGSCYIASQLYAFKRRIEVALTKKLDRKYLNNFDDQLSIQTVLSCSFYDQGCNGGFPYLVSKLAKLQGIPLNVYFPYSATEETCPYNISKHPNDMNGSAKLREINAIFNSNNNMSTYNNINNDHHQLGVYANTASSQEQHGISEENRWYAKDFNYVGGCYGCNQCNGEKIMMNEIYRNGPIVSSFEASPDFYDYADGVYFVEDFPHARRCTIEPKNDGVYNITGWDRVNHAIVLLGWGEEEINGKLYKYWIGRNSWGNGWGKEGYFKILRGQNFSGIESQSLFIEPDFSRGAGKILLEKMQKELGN
row,SMILES,% Inhibition @ 10 uM
1,Cc1ccc(NCC(=O)n2c(=O)sc3ccccc32)cc1,3.83%
2,Cc1ccccc1Cn1ccn(CCc2ccccc2)c(=O)c1=O,-0.326%
3,Oc1nnc(-c2ccc(Cl)cc2)c2ccccc12,-3.03%
4,CCC(C)NS(=O)(=O)c1ccc(OCC(=O)N2CCN(c3cc(Cl)ccc3C)CC2)cc1 (stereo not shown),-0.545%
5,Cc1cc(/C=C2/C(=N)N3C(=NC2=O)SN=C3S(C)(=O)=O)c(C)n1-c1ccc(C(C)C)cc1,-1.58%
6,CCOc1ccc(OCc2ccc(C(=O)Nc3cccnc3)o2)cc1,-4.82%
7,Cc1cc(C(=O)NCCCN2CCOCC2)c2c(C)nn(-c3ccccc3Cl)c2n1,-1.3%
8,CN(Cc1ccccc1)C(=O)c1noc2c1COc1ccccc1-2,7.85%
9,CCNc1nc(NCC)nc(Oc2ccc(OCc3ccccc3)nn2)n1,-4.49%
10,C=CCSc1nnc2c(n1)[nH]c1ccccc12,36.9%
11,O=C(NCc1ccc2c(c1)OCO2)c1ccc(CSc2nc3ccncc3[nH]2)cc1,10.7%
12,O=C(CSc1nnc(-c2cccs2)n1-c1ccccc1)Nc1ccnc2ccccc12,0.9%
13,COc1ccc(Oc2coc3cc(OCC(=O)O)ccc3c2=O)cc1,13.2%
14,CCOCCCNS(=O)(=O)c1ccc(-c2ccc(O)nn2)o1,1.75%
15,CS(=O)(=O)c1ccc2nc(NC(=O)c3ccco3)sc2c1,-0.661%
16,COc1cc(C(=O)N(Cc2ccco2)Cc2ccc(C)o2)cc(OC)c1OC,-1.07%
17,O=C(O)CCn1nc(Nc2ccccc2)n(-c2ccccc2)c1=S,-1.69%
18,CCS(=O)(=O)c1nc2ccccc2n1Cc1ccccn1,-3.34%
19,COC(=O)Nc1sc2c(c1C#N)CCC(C(C)(C)C)C2 (stereo not shown),-0.988%
20,O=C(c1cnn2ccccc12)N1CCN(C2CCCCC2)CC1,3.59%
21,COc1ccc(/C=C2/SC(=O)N(CC(=O)Nc3ccccc3)C2=O)cc1O,-4.59%
22,COc1ccc(-c2noc(CC(=O)Nc3ccc(NC(C)=O)nc3)n2)cc1,-1.39%

row,SMILES,% Inhibition @ 10 uM
1,CC(C)Nc1nc2ccccc2n2cnnc12,-4.21%
2,CCOc1ccc(CCNC(=O)c2cc3ccc4cccnc4c3[nH]2)cc1OCC,13.7%
3,CCN1CCN(C2CCc3ccccc3C2)CC1 (stereo not shown),-1.96%
4,COc1ccc(C(=O)Nc2ccc(C)c(C)c2)cc1OC,3.24%
5,O=C(COc1ccc(Cl)c(Cl)c1)N(Cc1ccc(Cl)cc1Cl)c1cccc(Cl)c1,-5.23%
6,N#CC1=C(NC(=S)NC(=O)c2ccccc2)c2ccccc2CC12CCCCC2,2.58%
7,Cn1c(Sc2ccnc3cc(Cl)ccc23)cc(=O)n(C)c1=O,18%
8,O=c1c2cc3c(=O)n(Cc4cccs4)ccc3nc2ccn1Cc1cccs1,2.39%
9,O=C(NCCc1cccs1)c1cc2c(Cl)ccc3c2n1CCO3,0.453%
10,FC(F)(F)c1ccc(CN2CCN(c3ncccn3)CC2)cc1,6.33%
11,Cn1nc(C(=O)NCCc2ccsc2)c2c1-c1ccccc1SC2,27.3%
12,O=C(O)CSc1cc[n+](CC(=O)c2ccccc2)cc1,-0.947%
13,CCOc1ccc(CNS(=O)(=O)c2c(C)nc3sccn3c2=O)cc1OC,-4.99%
14,CC(C)(C)/N=C(\NS(=O)(=O)c1ccc(Cl)cc1)c1ccccc1,-1.69%
15,COc1cccc(C2C=C(c3ccc(F)cc3)Nc3nc4ccccc4n32)c1OC (stereo not shown),-1.62%
16,COC(F)(C(=O)Nc1ccc(Br)c2cccnc12)C(F)(F)F (stereo not shown),-3.06%
17,O=C(O)c1cc2c(s1)CCCC2,1.22%
18,Cc1ccc(-c2nc3scc(CCNC(=O)c4ccc(Br)cc4)n3n2)cc1,5.7%
19,CC1=CN2C(=N)/C(=C/c3cc(C)n(-c4cccc(C)c4)c3C)C(=O)N=C2S1,-6.78%
20,CCOc1ccc2nc(NC(=O)c3cc(Br)ccc3Cl)sc2c1,-0.769%
21,COc1ccc(C2CC(=O)Nc3c2ccc2ccccc32)cc1 (stereo not shown),-4.03%
22,COC(=O)c1ccc(CN2CC=C(c3ccc(F)cc3)CC2)cc1,1.54%

row,SMILES,% Inhibition @ 10 uM
1,O=C(c1ccc(Br)cc1)N(Cc1ccc(Cl)cc1Cl)c1cccc(Cl)c1,-2.51%
2,COc1cc(C=O)ccc1OS(=O)(=O)c1ccc(F)cc1,3.25%
3,COc1ccc(C2C3=C(O)CCCC3=NC(C)=C2C(=O)Nc2ccccc2F)cc1OC (stereo not shown),0.851%
4,Cc1ccc(NC(=O)c2ccc([N+](=O)[O-])o2)cc1C,-6.12%
5,COc1ccc(CNC(=O)CN2N=C(c3ccc(Cl)cc3)CCC2=O)c(OC)c1,-10.8%
6,COc1cc(/C=C2\C(=N)N3N=C(S(C)(=O)=O)SC3=NC2=O)ccc1OCc1ccc(C)cc1,-7.21%
7,O=C(C1CCCN(S(=O)(=O)c2ccc(Br)s2)C1)N1CCc2ccccc2C1 (stereo not shown),-5.88%
8,CCN1CCCC1CNC(=O)CCCn1nc(C)n2c(cc3sccc32)c1=O (stereo not shown),1.8%
9,COc1ccc(C(=O)Nc2cc(Cl)ccc2O)cc1Cl,-7.83%
10,COc1ccc2nc(NC(=O)CSc3nc(C)cc(C)n3)sc2c1,-3.9%
11,CN(C)c1ccc(/C=C2\NC(=O)c3ccccc3C2=O)cc1,8.95%
12,CC(NC(=O)Cn1nc(C(F)(F)F)c2c1CCC2)c1ccccc1 (stereo not shown),-4.62%
13,Cc1ccc(C(=O)NCCN2CCCC2)cc1,-1.78%
14,CC(C)C(NC(=O)c1ccc(-c2csc(N=C(N)N)n2)cc1)C(=O)NCC#N (stereo not shown),-0.778%
15,CC(=O)NS(=O)(=O)c1ccc(NC(=O)C2(c3ccccc3)CCOCC2)cc1,3.17%
16,O=C1OC(c2cccc3ccccc23)=N/C1=C/c1ccc2c(c1)OCO2,-2.18%
17,Cc1cc2c(c(=O)n1Cc1cccnc1)C(c1ccc(F)cc1)C(C#N)=C(N)O2 (stereo not shown),-4.78%
18,CC1=C(C(=O)OCc2ccccc2)C(c2ccc(Cl)c(Cl)c2)NC(=O)N1 (stereo not shown),-2.87%
19,Cc1ccccc1Cn1nc(C)c(NC(=O)CCn2cc(Br)cn2)c1C,-3.71%
20,O=S(=O)(c1cc(Cl)ccc1Br)N1CCOCC1,-4.18%
